# Whole data set: some 4,100 sequences, median “relative CpG methylation activity (normalised to average over all NNNCGNNN flanks)” near 0.94, cut for the highest 2% near 1.9. This is one part of the list.
# Target: DNMT3B catalytic domain (mouse) (UniProt O88509)
# Assay: relative CpG methylation activity (normalised to average over all NNNCGNNN flanks) (relative (1 = mean)); higher = more methylation of the central CpG
# Settings: system: in vitro, murine catalytic domain; CpG state: hemimethylated substrate pool; residues: 558-859
# Method: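 Deep enzymology: a pool of dsDNA substrates with a central CpG flanked by 10 random nucleotides on each side was methylated by the murine DNMT3A or DNMT3B catalytic domain (0.8 mM SAM, 37 °C, 60 min). Methylation was then read out by hairpin ligation, bisulfite conversion and NGS. Values are the average methylation of each NNNCGNNN context (±3 flanks; the outer flanks are random and averaged over), normalised to the overall mean, so 1 = average activity.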
# UniProt O88509, sequence (O88509 558-859): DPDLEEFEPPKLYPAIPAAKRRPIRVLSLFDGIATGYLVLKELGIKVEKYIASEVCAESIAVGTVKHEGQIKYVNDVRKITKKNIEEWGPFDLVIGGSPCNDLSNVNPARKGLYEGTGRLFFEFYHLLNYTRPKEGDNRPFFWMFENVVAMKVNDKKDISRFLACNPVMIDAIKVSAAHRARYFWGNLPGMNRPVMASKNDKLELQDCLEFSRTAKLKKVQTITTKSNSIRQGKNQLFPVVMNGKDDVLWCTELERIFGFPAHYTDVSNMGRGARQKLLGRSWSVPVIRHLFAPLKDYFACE
row,Sequence,relative CpG methylation activity
1,CGGCGGTA,0.751
2,TGGCGCTC,0.412
3,TTTCGCCA,1.16
4,AGACGTTT,0.684
5,ACTCGTAA,0.372
6,TCCCGGGG,1.21
7,CGTCGGTG,1.12
8,GCACGTTC,0.971
9,GAGCGCCC,0.746
10,CGGCGAGG,1.14
11,AACCGAGC,1.38
12,TAACGCGT,1.09
13,TGCCGACT,0.879
14,GTGCGATA,1.36
15,GTACGGTA,1.61
16,ATCCGAAA,1.31
17,CCGCGAGG,0.979
18,GGGCGAGA,0.861
19,TACCGTGG,0.0942
20,TCGCGTAC,0.844
21,CGTCGTTA,0.361
22,GCTCGGAG,0.646
23,TTCCGGCA,1.86
24,GTTCGAGA,1.5
25,CTTCGCTT,0.81

row,Sequence,relative CpG methylation activity
1,TTCCGTCA,1.04
2,GCTCGTCT,0.699
3,CACCGCAA,0.27
4,TGACGAAC,1.26
5,CCACGTCC,1.45
6,TCTCGTTG,0.301
7,TTACGGCT,1.98
8,CGACGGCA,1.82
9,GAACGACA,1.15
10,CCCCGACG,1.29
11,ACGCGTGT,0.432
12,ATTCGCAA,0.43
13,AGCCGGGT,0.543
14,GACCGACT,0.866
15,TCGCGGCT,1.49
16,ATACGAAT,1.64
17,ACGCGACC,0.905
18,CGTCGAGC,1.52
19,ACACGTCG,1.08
20,CGACGCGT,0.874
21,GACCGAAC,1.15
22,GCTCGGTG,1.4
23,AACCGAGT,1.12
24,GGGCGTTC,0.448
25,ATCCGTCA,0.948

row,Sequence,relative CpG methylation activity
1,ACCCGTGG,0.234
2,ACACGGAA,1.12
3,GACCGCGT,0.291
4,GGCCGGAG,0.286
5,AGCCGGCT,0.979
6,ACCCGACT,1.18
7,GTGCGCTG,0.753
8,TCACGTTC,1.01
9,AGTCGAGT,1.57
10,TAACGATT,1.71
11,CTGCGCGC,1.06
12,CCGCGCAT,0.647
13,CAGCGCAT,0.601
14,ATACGGTT,1.38
15,GACCGGAC,0.694
16,CAGCGGAG,0.402
17,GACCGACC,1.13
18,GTTCGTGA,0.411
19,GCGCGAAA,0.857
20,GCTCGGAA,0.89
21,TCTCGCAG,0.278
22,TCTCGCCC,1.01
23,GGTCGCCG,0.646
24,CATCGGCG,1.72
25,ATGCGGAC,0.76

row,Sequence,relative CpG methylation activity
1,TATCGGAC,1.02
2,CGTCGGTT,1.17
3,GCTCGTGT,0.224
4,TGTCGGCG,1.48
5,ACCCGGAC,1.06
6,ACGCGGGC,1.12
7,CCACGGAC,1.39
8,AGTCGCTA,0.567
9,TGCCGAAC,0.962
10,GACCGTAC,0.724
11,TGTCGTGA,0.114
12,TCACGTTT,0.884
13,AACCGTGA,0.218
14,TCGCGCAT,0.385
15,CGTCGGCC,1.54
16,ACCCGTAA,0.449
17,GTACGTAC,1.42
18,CATCGGCA,1.83
19,TTTCGGGC,1.54
20,AAGCGAGT,1.05
21,CTACGTGT,1
22,ATCCGCTC,0.971
23,TTTCGAGC,1.69
24,TAGCGCGT,0.628
25,AAACGCGA,0.809

row,Sequence,relative CpG methylation activity
1,TTCCGTAG,0.417
2,GAGCGCCT,0.683
3,CAACGAAG,1.13
4,ACACGTCC,1.38
5,TTTCGATG,1.48
6,GAACGAAA,1.34
7,TCACGTCC,1.24
8,GAGCGCGG,0.24
9,TTCCGTAT,0.673
10,ATTCGGGA,1.31
11,CAGCGATG,0.82
12,TCGCGGGG,0.906
13,CCCCGCTC,1.04
14,GCACGTAG,0.964
15,GAACGTCA,1.14
16,ACACGTGT,0.578
17,GCGCGTTA,0.587
18,TTACGTGA,1.21
19,GGGCGCAC,0.293
20,AATCGCAC,0.584
21,GATCGATA,1.46
22,CTTCGACG,1.3
23,CTACGTTG,1.11
24,GGGCGAAA,0.647
25,ACGCGTTA,0.526

row,Sequence,relative CpG methylation activity
1,GCACGTTT,0.645
2,TGACGTCG,0.815
3,ACTCGCCA,0.675
4,GGGCGAAT,0.676
5,AAGCGATC,1.28
6,GCGCGGGT,0.773
7,TTCCGTGC,1.16
8,TACCGTCC,0.881
9,CGCCGAAA,0.944
10,CTACGTGG,0.629
11,ATCCGGGT,1.44
12,GAACGAAC,1.48
13,AGTCGAGG,1.54
14,GTTCGATC,1.3
15,ATACGCGT,1.37
16,TATCGGAT,1.18
17,ATACGCGC,1.72
18,AGTCGTTG,0.298
19,TCTCGCTA,0.714
20,CGGCGCGT,0.45
21,CTTCGTTG,0.484
22,TACCGACT,1.16
23,GCGCGGAT,0.55
24,GATCGCAT,0.361
25,TAGCGGAA,0.638

row,Sequence,relative CpG methylation activity
1,TCCCGCCC,1.02
2,GGACGGAT,0.599
3,CACCGTCG,0.457
4,AGCCGTGG,0.0208
5,TATCGCGA,0.535
6,TTCCGATC,2.31
7,GACCGTCG,0.455
8,AGCCGCAG,0.211
9,TCACGGTC,1.67
10,AATCGTCT,0.545
11,AGGCGTCA,0.455
12,CTGCGGCG,1.48
13,TAACGAAC,1.67
14,ACACGCTC,1.37
15,CAGCGACA,0.777
16,ACCCGTCG,0.68
17,AACCGGCG,1.25
18,TACCGCTG,0.389
19,TCCCGATA,1.52
20,CCACGCTA,0.915
21,GATCGACG,1.03
22,GGCCGACC,0.756
23,CCTCGTCA,0.669
24,GGTCGATA,1.23
25,ATACGGCC,2.01

row,Sequence,relative CpG methylation activity
1,AAACGCAA,0.87
2,AGCCGATT,1.22
3,GAGCGCCG,0.478
4,TAACGCAA,0.759
5,CCGCGTAG,0.743
6,GAACGTTA,0.705
7,CGACGGAA,0.669
8,GATCGGCG,1.55
9,CTCCGGAC,1.31
10,TCTCGATA,1.68
11,CCTCGGCA,1.55
12,TCCCGGGA,1.4
13,CAACGGCA,1.74
14,TGGCGTCG,0.6
15,ATGCGTCT,0.729
16,GATCGCAA,0.278
17,GTTCGGCT,1.75
18,TGACGCTC,0.89
19,GTTCGCGT,0.679
20,GAACGGAT,1.01
21,CTACGCAA,1.33
22,GATCGCGG,0.551
23,GAACGTCC,1.22
24,CAGCGCAG,0.337
25,GTACGTAG,1.03

row,Sequence,relative CpG methylation activity
1,CTCCGGTT,1.72
2,CCGCGGCG,1.28
3,CCCCGTAT,0.536
4,GGTCGTGA,0.122
5,ATTCGATG,1.21
6,GTCCGCTG,1.02
7,CTACGACT,1.92
8,CACCGCGT,0.402
9,CCGCGCAC,0.755
10,GACCGGCC,1.47
11,AGCCGTAT,0.106
12,GATCGATG,1.14
13,GCGCGGGG,0.394
14,GAACGGTA,1.28
15,AGTCGCAT,0.427
16,AAACGTCC,1.22
17,TACCGCAG,0.246
18,AAGCGGGT,0.581
19,TTGCGACC,1.23
20,GCACGACC,1.26
21,GTCCGTCT,0.827
22,CCACGCCT,1.22
23,AGCCGGAC,0.434
24,TGTCGAGC,1.37
25,CTGCGAGA,1.51

row,Sequence,relative CpG methylation activity
1,GTCCGTAC,1.32
2,AACCGATA,1.2
3,TCCCGCGC,0.77
4,AGACGGCC,1.71
5,GGTCGTGC,0.413
6,CTCCGAGG,1.87
7,CTCCGACT,1.77
8,GGGCGGAC,0.543
9,CCCCGGTT,1.44
10,CTCCGGGA,1.77
11,TAACGCCG,1.42
12,GGACGACT,1.02
13,TCTCGTGC,0.758
14,TATCGCTA,0.662
15,AAGCGAGA,0.974
16,ATGCGTCA,0.863
17,TATCGCTC,0.837
18,GTCCGAAC,1.49
19,ATACGCTC,1.57
20,CACCGTAG,0.298
21,TGGCGTCA,0.414
22,ATACGCCG,1.69
23,TATCGAGC,1.57
24,CCCCGTGA,0.646
25,TGACGGGC,1.12

row,Sequence,relative CpG methylation activity
1,CAGCGATC,1.19
2,GCGCGACT,0.833
3,CATCGTGG,0.177
4,GTCCGGAA,1.13
5,CAACGCGC,1.42
6,ATCCGTCG,0.685
7,AAACGCTA,1.17
8,AGGCGATA,0.654
9,ACCCGAGA,1.59
10,AGCCGCCA,0.384
11,TCACGGAA,1.3
12,TCACGTGC,1.05
13,GCTCGTAA,0.408
14,ACTCGGCA,1.42
15,CGCCGCCA,0.454
16,GATCGCGA,0.392
17,TGACGAAA,1.04
18,TGCCGTAC,0.58
19,TAACGCGA,0.942
20,AAGCGACG,0.723
21,CTGCGTAG,0.918
22,AACCGTCT,0.425
23,CTGCGTAT,0.874
24,TTTCGATT,1.44
25,CATCGATT,1.68

row,Sequence,relative CpG methylation activity
1,GTCCGCGC,0.72
2,AGACGTGA,0.449
3,TTTCGATA,1.81
4,CACCGGTC,1.34
5,TACCGGCA,1.48
6,ATACGAGT,1.92
7,TCTCGTTA,0.269
8,AGACGGTT,1.41
9,GTTCGTAG,0.42
10,CTTCGCGC,1.21
11,CCACGCCG,1.28
12,TTACGTCG,1.58
13,CAGCGATA,1.06
14,CCGCGTTT,0.473
15,GCACGGGG,1.26
16,GGTCGCCT,0.856
17,ATGCGTTG,0.768
18,GTGCGGAT,0.671
19,TTTCGAAA,1.62
20,AGCCGATG,0.876
21,TGGCGGGT,0.625
22,CCTCGTTC,0.726
23,TTACGCGT,1.56
24,ATACGATC,2.12
25,TTGCGAAA,1.06

row,Sequence,relative CpG methylation activity
1,TCGCGCGT,0.498
2,GGACGAAG,1.05
3,ATCCGTAC,1.14
4,CCTCGCGA,0.653
5,TGGCGCCT,0.686
6,AGGCGGTC,0.656
7,CCACGTAA,0.901
8,AGACGAGA,1.79
9,TGCCGGGG,0.469
10,ATACGTAT,1.1
11,GACCGGGC,1.02
12,AGGCGCGA,0.281
13,TTTCGTCC,1.46
14,CTACGACA,1.68
15,TCGCGTTG,0.651
16,CACCGACC,1.09
17,GTTCGGCG,1.74
18,GTTCGCCC,0.862
19,CAACGTTA,0.868
20,CGACGGAC,0.934
21,CTACGTCT,1.54
22,TAGCGCGC,0.658
23,TTCCGCCT,1.05
24,GATCGTTT,0.274
25,TCCCGACG,1.37

row,Sequence,relative CpG methylation activity
1,AGTCGCGT,0.527
2,TGCCGGCT,0.975
3,AACCGGTG,0.805
4,AGACGAGG,1.67
5,TAGCGCCA,0.98
6,AGACGCCG,1.48
7,GCACGATG,1.35
8,ACGCGGAT,0.581
9,CGTCGCGT,0.404
10,CGTCGGGA,1.1
11,CACCGCTA,0.478
12,TCACGTAA,0.876
13,TGCCGTTC,0.419
14,ACCCGGTC,1.3
15,TGACGAGA,1.48
16,GCACGGCA,1.79
17,AGCCGCTA,0.259
18,GCGCGAGT,0.879
19,CCCCGTAA,0.383

# Source: the supplement of paper PMC7335073
